Data reported in the supplement of paper PMC8728848.
This is one part of the list.

Assays:
Assay in all cases: glycan array binding signal (z-score within array); higher = stronger binding
Settings in all cases: glycan notation: IUPAC condensed, linker removed
Fuc(a1-2)Gal = target: Fuc(a1-2)Gal
Procedure, shortened: (§1)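 From the Consortium for Functional Glycomics database, 3228 arrays were curated, keeping only those whose protein sequence was available. Binding is given as a within-array Z-score averaged across arrays sharing a protein sequence and across linkers. Negative Z-scores can be read as non-binding.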

Fuc(a1-2)Gal(b1-3)GalNAc = target: Fuc(a1-2)Gal(b1-3)GalNAc
Procedure, shortened: as §1

[1] = target: Fuc(a1-2)Gal(b1-3)GalNAc(a1-3)[Fuc(a1-2)]Gal(b1-4)Glc
Procedure, shortened: as §1

[2] = target: Fuc(a1-2)Gal(b1-3)GalNAc(a1-3)[Fuc(a1-2)]Gal(b1-4)GlcNAc
Procedure, shortened: as §1

[3] = target: Fuc(a1-2)Gal(b1-3)GalNAc(b1-3)Gal
Procedure, shortened: as §1

[4] = target: Fuc(a1-2)Gal(b1-3)GalNAc(b1-3)Gal(a1-4)Gal(b1-4)Glc
Procedure, shortened: as §1

[5] = target: Fuc(a1-2)Gal(b1-3)GalNAc(b1-4)[Neu5Ac(a2-3)]Gal(b1-4)Glc
Procedure, shortened: as §1

Fuc(a1-2)Gal(b1-3)GlcNAc = target: Fuc(a1-2)Gal(b1-3)GlcNAc
Procedure, shortened: as §1

[6] = target: Fuc(a1-2)Gal(b1-3)GlcNAc(b1-2)Man(a1-3)[Fuc(a1-2)Gal(b1-3)GlcNAc(b1-2)Man(a1-6)]Man(b1-4)GlcNAc(b1-4)GlcNAc
Procedure, shortened: as §1

[7] = target: Fuc(a1-2)Gal(b1-3)GlcNAc(b1-2)Man(a1-3)[Fuc(a1-2)Gal(b1-3)GlcNAc(b1-2)Man(a1-6)]Man(b1-4)GlcNAc(b1-4)[Fuc(a1-6)]GlcNAc
Procedure, shortened: as §1

[8] = target: Fuc(a1-2)Gal(b1-3)GlcNAc(b1-3)Gal(b1-4)Glc
Procedure, shortened: as §1

[9] = target: Fuc(a1-2)Gal(b1-3)GlcNAc(b1-3)GalNAc
Procedure, shortened: as §1

[10] = target: Fuc(a1-2)Gal(b1-3)GlcNAc(b1-3)[Fuc(a1-3)[Gal(b1-4)]GlcNAc(b1-6)]Gal(b1-4)Glc
Procedure, shortened: as §1

[11] = target: Fuc(a1-2)Gal(b1-3)GlcNAc(b1-3)[Gal(b1-4)GlcNAc(b1-6)]Gal(b1-4)Glc
Procedure, shortened: as §1

[12] = target: Fuc(a1-2)Gal(b1-3)[Fuc(a1-4)]GlcNAc
Procedure, shortened: as §1

[13] = target: Fuc(a1-2)Gal(b1-3)[Fuc(a1-4)]GlcNAc(b1-2)Man(a1-3)[Fuc(a1-2)Gal(b1-3)[Fuc(a1-4)]GlcNAc(b1-2)Man(a1-6)]Man(b1-4)GlcNAc(b1-4)GlcNAc
Procedure, shortened: as §1

[14] = target: Fuc(a1-2)Gal(b1-3)[Fuc(a1-4)]GlcNAc(b1-3)[Fuc(a1-3)[Gal(b1-4)]GlcNAc(b1-6)]Gal(b1-4)Glc
Procedure, shortened: as §1

[15] = target: Fuc(a1-2)Gal(b1-3)[Fuc(a1-4)]GlcNAc(b1-3)[Gal(b1-4)GlcNAc(b1-6)]Gal(b1-4)Glc
Procedure, shortened: as §1

Fuc(a1-2)Gal(b1-4)Glc = target: Fuc(a1-2)Gal(b1-4)Glc
Procedure, shortened: as §1

Fuc(a1-2)Gal(b1-4)Glc6S = target: Fuc(a1-2)Gal(b1-4)Glc6S
Procedure, shortened: as §1

Fuc(a1-2)Gal(b1-4)GlcNAc = target: Fuc(a1-2)Gal(b1-4)GlcNAc
Procedure, shortened: as §1

[16] = target: Fuc(a1-2)Gal(b1-4)GlcNAc(b1-2)Man(a1-3)[Fuc(a1-2)Gal(b1-4)GlcNAc(b1-2)Man(a1-6)]Man(b1-4)GlcNAc(b1-4)GlcNAc
Procedure, shortened: as §1

[17] = target: Fuc(a1-2)Gal(b1-4)GlcNAc(b1-2)Man(a1-3)[Fuc(a1-2)Gal(b1-4)GlcNAc(b1-2)Man(a1-6)]Man(b1-4)GlcNAc(b1-4)[Fuc(a1-6)]GlcNAc
Procedure, shortened: as §1

[18] = target: Fuc(a1-2)Gal(b1-4)GlcNAc(b1-2)[Fuc(a1-2)Gal(b1-4)GlcNAc(b1-4)]Man(a1-3)[Fuc(a1-2)Gal(b1-4)GlcNAc(b1-2)Man(a1-6)]Man(b1-4)GlcNAc(b1-4)GlcNAc
Procedure, shortened: as §1

[19] = target: Fuc(a1-2)Gal(b1-4)GlcNAc(b1-3)Gal(b1-4)GlcNAc
Procedure, shortened: as §1

[20] = target: Fuc(a1-2)Gal(b1-4)GlcNAc(b1-3)Gal(b1-4)GlcNAc(b1-3)Gal(b1-4)GlcNAc
Procedure, shortened: as §1

[21] = target: Fuc(a1-2)Gal(b1-4)GlcNAc(b1-3)GalNAc
Procedure, shortened: as §1

[22] = target: Fuc(a1-2)Gal(b1-4)GlcNAc6S
Procedure, shortened: as §1

[23] = target: Fuc(a1-2)Gal(b1-4)[Fuc(a1-3)]GlcNAc
Procedure, shortened: as §1

[24] = target: Fuc(a1-2)Gal(b1-4)[Fuc(a1-3)]GlcNAc(b1-2)Man(a1-3)[Fuc(a1-2)Gal(b1-4)[Fuc(a1-3)]GlcNAc(b1-2)Man(a1-6)]Man(b1-4)GlcNAc(b1-4)GlcNAc
Procedure, shortened: as §1

B1: Gal 3 (Canis lupus) (protein)
chain: MADSFSLNDALSGSGNPNPQGWPGPWGNQPAGAGGYPGASYPGAYPGQAPPGGYPGQAPPGGYPGQAPPGGYPGQAPPGGYPGQAPPGGYPGQAPPGTYPGPTAPAYPGPTAPGTQPGQPSGPGAYPPPGQPSAPGAYPAAGPFGIPAGPLTVPYDLPLPGGVKPRMLITILGTVRPSANRLALDFKRGNDVAFHFNPRFNEDNKRVIVCNTKLDNIWGKEERQAAFPFESGKPFKIQVLVESDHFKVAVNDAHLLQYNHRMKNLPEISKLGISGDIDLTSASYAMI
Fuc(a1-2)Gal
  glycan array binding signal (z-score): -0.258
Fuc(a1-2)Gal(b1-3)GalNAc
  glycan array binding signal (z-score): -0.258
[1]
  glycan array binding signal (z-score): -0.248
[2]
  glycan array binding signal (z-score): -0.113
[3]
  glycan array binding signal (z-score): -0.269
[4]
  glycan array binding signal (z-score): -0.264
[5]
  glycan array binding signal (z-score): -0.26
Fuc(a1-2)Gal(b1-3)GlcNAc
  glycan array binding signal (z-score): -0.171
[6]
  glycan array binding signal (z-score): -0.178
[7]
  glycan array binding signal (z-score): -0.159
[8]
  glycan array binding signal (z-score): 0.067
[9]
  glycan array binding signal (z-score): -0.159
[10]
  glycan array binding signal (z-score): -0.134
[11]
  glycan array binding signal (z-score): -0.147
[12]
  glycan array binding signal (z-score): -0.274
[13]
  glycan array binding signal (z-score): -0.219
[14]
  glycan array binding signal (z-score): -0.25
[15]
  glycan array binding signal (z-score): -0.193
Fuc(a1-2)Gal(b1-4)Glc
  glycan array binding signal (z-score): -0.244
Fuc(a1-2)Gal(b1-4)Glc6S
  glycan array binding signal (z-score): -0.225
Fuc(a1-2)Gal(b1-4)GlcNAc
  glycan array binding signal (z-score): -0.189
[16]
  glycan array binding signal (z-score): 0.463
[17]
  glycan array binding signal (z-score): -0.156
[18]
  glycan array binding signal (z-score): -0.147
[19]
  glycan array binding signal (z-score): 1.56
[20]
  glycan array binding signal (z-score): 2.25
[21]
  glycan array binding signal (z-score): -0.198
[22]
  glycan array binding signal (z-score): 0.095
[23]
  glycan array binding signal (z-score): -0.259
[24]
  glycan array binding signal (z-score): -0.201
